From PubChem BioAssay (NCI)
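A five-concentration, 48-hour dose response in 96-well plates underlies each endpoint, interpolated linearly between surrounding concentrations. GI50 is the concentration that inhibits growth by half. TGI is the concentration that stops growth completely.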

These molecules were tested on NCI-H322M lung (assay: NCI-60 cell line screen, 48 h).
CC1=C(CN(O)C(N)=O)C2=C(C)C3(CC3)[C@@](C)(O)C(=O)C2=C1 was tested, and the GI50 was 183 nM and the TGI was 727 nM. In the case of COc1cccc(N2CCN(c3ncnc4c3[nH]c3ccc(F)cc34)C[C@@H]2C)c1, the GI50 is reported as 2020 nM and the TGI is reported as 4490 nM. O=C(NNc1nc2cc(F)ccc2n2cccc12)c1ccncn1 was tested, and the GI50 was 195 nM and the TGI was > 30000 nM.
